Results reported in the supplement of paper PMC9433436.
± gives the standard deviation of the averaged measurements. Over roughly 4,100 sequences, “relative kcat/Km (krel) vs genomic leader AAAGAU” has its median near 1.7; the highest 2% begin near 6.5. The entries are a selection whose mix differs from that of the whole data set.

Biological target: T1, E. coli RNase P holoenzyme (M1 P RNA + rnpA protein) (UniProt P0A7Y8)
T1 sequence: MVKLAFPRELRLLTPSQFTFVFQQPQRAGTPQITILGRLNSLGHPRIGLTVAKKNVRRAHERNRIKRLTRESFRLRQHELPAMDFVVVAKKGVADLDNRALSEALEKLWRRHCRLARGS
Assay: relative kcat/Km (krel) vs genomic leader AAAGAU (relative (reference leader = 1)); higher = faster RNase P cleavage
Outline: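 Relative kcat/Km (krel) values came from internal competition kinetics on sequencing read ratios, normalised to the genomic leader and averaged over two technical replicates. A precursor tRNA-Met pool with randomized leader positions −6 to −1 was cleaved by E. coli RNase P holoenzyme (P RNA plus C5 protein) under multiple-turnover conditions at 37 °C. The buffer held 50 mM Tris-HCl pH 8, 100 mM NaCl and 17.5 mM MgCl2, and unreacted precursor was gel-purified at ~5–30% conversion, made into cDNA libraries and Illumina-sequenced.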

[1] = fraction of substrate reacted: ~9-10% (9.79% repeat 1, 9.1% repeat 2)
[2] = fraction of substrate reacted: ~13-16% (15.68% repeat 1, 13.17% repeat 2)
[3] = fraction of substrate reacted: ~26-29% (28.66% repeat 1, 26.4% repeat 2)

Sequence | relative kcat/Km [1] | relative kcat/Km [2] | relative kcat/Km [3]
GGTTAT | 0.926 ± 0.33 | 1.69 ± 0.19 | 2.83 ± 1.2
GCTTAC | 2.22 ± 0.41 | 2.79 ± 0.81 | 4.83 ± 1.6
ATGATT | 1.48 ± 0.2 | 1.78 ± 0.25 | 2.22 ± 0.77
GGGAAT | 0.982 ± 0.17 | 1.33 ± 0.69 | 1.92 ± 1.2
GCACGG |  |  | 0.359 ± 0.29
GGCTCA | 1.63 ± 0.079 | 1.25 ± 0.021 | 1.77 ± 0.47
GCTAGA | 1.329 ± 0.007 | 1.71 ± 0.21 | 2.45 ± 0.62
GTTAGA | 2.272 ± 0.0048 | 3 ± 0.72 | 4.67 ± 1.6
TAGAAG |  | 0.971 ± 0.93 | 2.34 ± 0.089
CTACAG |  | 1.24 ± 0.24 | 1.8 ± 0.45
CATTGA | 4.03 ± 2.1 | 4.09 ± 1.6 | 6.51 ± 2.6
CTTTGC | 3.95 ± 1.4 | 4.28 ± 0.71 | 5.73 ± 1.8
CAGTCA | 1.56 ± 0.78 | 1.64 ± 1.4 | 2.56 ± 1.5
CGCGAC | 1.93 ± 0.92 | 2.57 ± 0.49 | 4.42 ± 1.3
TACCTC | 2.58 ± 1.4 | 2.74 ± 0.5 | 4.62 ± 1.9
ACGTAG | 1.96 ± 1.1 | 1.27 ± 0.019 | 2.69 ± 1.1
AATTTA | 1.65 ± 0.69 | 1.63 ± 0.14 | 2.33 ± 0.76
TGAGTT | 1.22 ± 0.22 | 1.26 ± 0.098 | 0.851 ± 0.034
TTCTCG | 2.16 ± 1.3 | 2.86 ± 0.45 | 4.91 ± 1.5
CCCAGT | 1.46 ± 0.43 | 1.08 ± 0.5 | 0.854 ± 0.22
GTACAC | 2.77 ± 1.4 | 3.51 ± 0.54 | 4.87 ± 2.1
CCAGGA |  |  | 0.348 ± 0.1
ATTGTT | 0.98 ± 0.36 | 0.898 ± 0.69 | 1.14 ± 0.62
TGACGG |  |  | 0.732 ± 0.19
TGTTCG | 1.17 ± 0.34 | 0.953 ± 0.14 | 2.21 ± 0.63
TTAGGG | 0.357 ± 0.048 | 1.11 ± 0.86 | 2.15 ± 2.1

Sequence | relative kcat/Km [1] | relative kcat/Km [2] | relative kcat/Km [3]
CATCCT | 2.74 ± 1.2 | 2.46 ± 0.37 | 3.05 ± 1.3
GACTCC | 3.31 ± 0.62 | 4.26 ± 0.76 | 5.61 ± 2
GCACTG |  |  | 0.928 ± 0.31
AAACTT | 1.24 ± 0.78 | 1.5 ± 0.34 | 1.72 ± 0.4
AGAGCA | 1.6 ± 1.4 | 1.29 ± 0.48 | 1.79 ± 0.37
GACCGA | 3.3 ± 0.89 | 4.27 ± 2.1 | 6.73 ± 2.8
AGGACT |  | 0.804 ± 0.14 | 0.609 ± 0.17
GGCTGG | 0.0825 ± 0.053 |  | 0.197 ± 0.19
ACAACA | 1.44 ± 0.56 | 0.464 ± 0.13 | 1.28 ± 0.044
CTAATG |  |  | 1.01 ± 0.032
AGGAGA | 1.11 ± 0.84 | 1.25 ± 0.32 | 1.37 ± 0.089
TGTTCT | 1.986 ± 0.0021 | 2.58 ± 0.73 | 4.41 ± 1.8
CTATCG | 0.484 ± 0.45 | 0.416 ± 0.1 | 0.968 ± 0.63
CATGGA |  |  | 1.18 ± 0.94
TTCGTT | 1.6 ± 0.73 | 2.49 ± 0.11 | 3.56 ± 1.5
AATGAC | 1.6 ± 0.14 | 2.43 ± 0.32 | 3.41 ± 1.5
GACATA | 3.56 ± 1.6 | 4.08 ± 0.23 | 5.57 ± 2.4
TGTAGG |  | 0.426 ± 0.27 | 1.61 ± 0.48
TAGGAT | 0.85 ± 0.42 |  | 1.93 ± 1.8
CCGCAC | 2.75 ± 0.53 | 2.27 ± 0.52 | 3.95 ± 1
TACATC | 3.03 ± 0.57 | 4.44 ± 0.76 | 6.8 ± 2.7
GAATTG |  |  | 0.858 ± 0.51
TAGCGG | 0.559 ± 0.074 | 0.769 ± 0.42 | 0.842 ± 0.027
CAGGCC | 1.58 ± 1.1 | 1.08 ± 0.37 | 0.865 ± 0.12
CAGGAG | 0.78 ± 0.77 |  | 0.626 ± 0.52
